This is one part of the list.
System: PfAP2-HC AP2 domain (GST-tagged)
Experiment: gcPBM binding intensity (ln(normalized median fluorescence intensity)); higher = stronger DNA binding
Outline: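 Each value is the highest Masliner-normalised natural-log median intensity across replicate spots of either orientation of a probe. The probes were primer-extended double-stranded 36-bp intergenic genomic sequences on an Agilent 4 × 180k array, alongside negative controls, exposed for 1 h to GST-tagged P. falciparum DNA-binding domains expressed in E. coli. Bound protein was picked up with Alexa488 anti-GST antibody and scanned at 488 nm.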

Sequence	gcPBM binding intensity (ln)
TATATATATATATATACACACATATACATATTGTTT [CACACA_site3499]	9.64
AATGTATATAGAAACATGCACACGTGGTTGTATATA [CACACA_site3278]	10.1
TTGTGTTAACTACCATGTACTTATACATCATAGGAA [XGTACX_site6627]	9.43
TATTGCCCTGGACACACACACATATATATATATATA [CACACA_site5389]	10.2
ATAATATAAACATACACACACACATCTATATTTATA [CACACA_site7381]	10.6
TTATGTTATATAAAAAGTACAAATTTTTTTTAATTA [XGTACX_site3435]	9.42
ATTATTATTATATATGCATGTAAAATATTAAAGTAC [TGCATGCA_site914]	9.58
ATACATATAAAAAAGTGTACATATTAAAATAAGTAT [XGTACX_site1310]	9.85
TTTTTTATAAATCAAATGAAAAATAAACTATTCAGA [CACACA_negctrl_site1568]	9.32
ATATCCGTTCAAAGATGTACATATATATTCTATAGA [XGTACX_site5354]	9.7
AATGCAAATAATAAAACACACAAAAAAAAGAAAAAA [CACACA_site1184]	9.9
TCATACAAACCTATTTGTACATAAGTATAATATATA [XGTACX_site4284]	9.54
AAGTATTACAACCACACACACACCTATATATCATAG [CACACA_site7878]	11
ATCTTTTACGAATACACACACATAAAGAAAAAAAAA [CACACA_site1331]	9.98
AAGGATATGAAAAGTAGTACAAAATTTAGAACACCC [XGTACX_site4758]	9.94
TTACGATTAAATATAACACACAACATATTTTTAATA [CACACA_site2967]	9.76
ATTATATTCTCCTTCACACACAAAAATATTTCATCA [CACACA_site5326]	9.93
CACAAAAATTTATACACACACATATATAATATATAT [CACACA_site152]	10.5
ATTTCAAATTAATTTACACACTTCATACTAAAAGAC [CACACA_site3176]	9.66
TTGATATATAATAATACACACTTACATAATTAATTA [CACACA_site4320]	9.63
ATGTATATGTTTTGTTGTACAAGTATTTTATATCTT [XGTACX_site3588]	9.82
TTTCAATTTATCAGTGTGCACAAAAATAAAATAAAA	9.88
TAAATACAGACATATACACACATATATATATATATA [CACACA_site4382]	9.75

Sequence	gcPBM binding intensity (ln)
TTTAAATATATTCAATCACACACATTCGTTTTTTTT [CACACA_site7962]	9.88
AATATATACATACATACATGCATACATATATATAAC [TGCATGCA_site371]	9.77
AGTAGTCTGGAGAAAAGTACACAGTATCTGGTAACC [XGTACX_site2035]	9.69
GAATATTAAACAAACACACACACATATATATATATA [CACACA_site3382]	10.7
GTTTATTGATTTATTTGTACTTATATATATATTTCA [XGTACX_site5098]	9.96
GTATAAAAATTATATACACACAACAGAATTACATAT [CACACA_site133]	10.1
TAAAGATGTATTTATTCACACATCTCATATAATGAA [CACACA_site5229]	9.46
TTATGTATCCTTATAAGAAAAAAAAAAAAATTCTCT [CACACA_negctrl_site1183]	9.26
AATAAAAATATAGGCACACATATTAAAATGAACTTA [CACACA_site830]	9.93
TGAATTTAGATATATACACACAAAAGTAAATACAAT [CACACA_site5548]	10.1
TATAAATAGATATATACACACATTTTTAATGATAAA [CACACA_site7299]	9.77
TTTTTATTTTTTCAAGTGCATATTTTTGGCTTCTTA	9.53
TATATATATATATTACGTTTTAAATATACTAATCTT [CACACA_negctrl_site32]	9.62
CTTTTTCCTTTATATTGTACATAATTAAAGATAATA [XGTACX_site7014]	9.16
AAAAAAAAAAAAAATACACACATATATATATATATA [CACACA_site85]	10.1
TAAATTTATATATAGGTGCGCAATTTGATAATAGTT [GTGCAC_site9783]	9.96
AAAAAAAAAAGACACACACACAATAGTATATAAATC [CACACA_site6579]	10.5
ATATAATCCTTTCAAACACACAAAATATAATTAATA [CACACA_site1829]	9.76
ATGATGGAATATTCTACACACAATTAATAAACAAAC [CACACA_site1045]	9.94
TTTTTTTATAAATTCACACAAAATATAATATTAAAA [CACACA_site4766]	9.23
CTATATATTTTTCATTGTACACAAATTAAAGAAAAA [XGTACX_site8385]	9.3
AATGTCATCATATTCATATATATTTATTTCTTTTTG [GTGCAC_negctrl_site500]	9.69
GGTTATAACCCACATGCACACGTAAATAAATATTAT [CACACA_site5992]	9.76

Sequence	gcPBM binding intensity (ln)
ATAAATAATAAGGTTACAACAAACACACAAAGGAAT [XGTACX_negctrl_site611]	10.2
TAAAAAAAAAAGTATACACACTTCTTAATGTCAACA [CACACA_site4818]	9.6
TGTCCAATTTATTGTGCACACCTCAAAAGTGGGTAA [CACACA_site3826]	9.69
GATATATAGGTATTTACACACAATGTGAGATCTATA [CACACA_site7575]	9.95
AAAGACTTTTTATGAGCACACACATATATTATGGAG [CACACA_site8254]	9.83
TTTCTATAATATATATGTACATATATAATATGTCGT [XGTACX_site3676]	9.7
AGATAAAATAAATACACACACATAAATACGTACAAA [CACACA_site4739]	10.4
TGATAATAAGCATACACACACACACTAAAAAAAAAA [CACACA_site6478]	10.9
ATGATTATACAAAATATACACACGTGGACACAAATA [CACACA_site8304]	10.3
AGAAGATTAAAAATTGCACACAAAAATATATTTTCT [CACACA_site8359]	9.8
TACCTATATACATACACACACATATAACCAATGTAG [CACACA_site7096]	10.4
TAATAAATAAAAACATGTACATATATACATATATGT [XGTACX_site485]	9.69
TTGATATACTATGACACATGCAAATAAAACATTATA [TGCATGCA_site535]	9.58
TAATCATTTTTAAATTGTACAATTTATATAATAAGT [XGTACX_site6081]	9.49
TAAATTTTGTTTAGCACACACACATACATACATACA [CACACA_site3155]	10.8
TTGTATTGTATATGCACACATAGAACACTTTTTTTT [CACACA_site4133]	9.88
TATTTTTTAAGTGAACATTTGTTATTATATTCTTAT [GTGCAC_negctrl_site172]	9.56
TATATCTGTATCATTACACACATGTATACTTATTTG [CACACA_site6134]	10.1
ATTAAAATAGAAAAAAAAAAAAAAAAAAAAAAAAAA [CACACA_negctrl_site1117]	8.88
GATGATACACAGGTGTTGCACTTAAATGCAGTTCTT [GTGCAC_site9627]	9.71
TATGGGGAACTATAATGTACGTATTCCTCATATATA [XGTACX_site338]	9.7
TTTTCAAAATGTTGTACACACAAAAAAAAAAAAAAA [CACACA_site1550]	9.58
AATTATTCTATATATTGTACATGTTTGTTTTTTTTT [XGTACX_site3130]	10.1

Sequence	gcPBM binding intensity (ln)
ATATATAAATATATATGTACACACATATACATGTTG [XGTACX_site6653]	10.1
TGTTTAATCACATGTTTGCACTTTCCTTTTGTAAAT [GTGCAC_site9893]	9.88
TCTTAAAATCGGAAATGAAATAAAGTTTACAATATG [TGCATGCA_negctrl_site553]	9.49
TGATTCTGTCATGGTGCACACCAGAACCATTATAAA [CACACA_site1965]	9.52
ATGTTTAATTTTTTTTTGTCCCTATAGAAGTGTCAA [CACACA_negctrl_site1103]	9.54
AATGAATAAATAAACACACACACATATATAAATATG [CACACA_site6160]	10.5
AAAACAAACAGACACACACACATATATATATATATA [CACACA_site3655]	10.8
TTTGAGTGCACATACACACAGACATACATTTAAATA [CACACA_site3403]	10
ATAACCTAATAATACACACACATGAATATATAGAAT [CACACA_site963]	10.2
TTTAAAATTTTTTTTTTTTTTTTTTTTTTTTTTTAT [TGCATGCA_negctrl_site213]	9.22
ATATAAATATGTTCTGCACACAAATAAGTGTTTGAA [CACACA_site9291]	9.79
CATATATATATATGTACACACATTAATAAAAAAAAA [CACACA_site3230]	9.83
GTTTAACTGTTTTATACACACAATGTATACAATAAA [CACACA_site2959]	9.73
AAAAAAAAAAAAAAAAGTACGTATCAAAGCATCAAA [XGTACX_site880]	9.64
AATCTGATCTTTTAAAGTACACAAAAAAAAAAAAAA [XGTACX_site115]	9.19
AGGTTATAAATAAATACACACATACAAAAATATGAC [CACACA_site4773]	10
AATGAACACCTAAAATGTACGTACAAATATATTTTA [XGTACX_site7067]	9.76
CCAAAATACATTAAACGTACATGTCCTAATAAGATA [XGTACX_site21]	9.6
TTCTTATATATATACACACACAAAATATCTACAATG [CACACA_site736]	10.1
TTGTTTTTATAAATATTATTACAATGAAAAAAAAAA [TGCATGCA_negctrl_site185]	9.32

— the supplement of paper PMC11417369
